{
  "source": "PubChem BioAssay AID686970",
  "about": "(National Center for Advancing Translational Sciences (NCATS), 2013)",
  "note": "Out of some 360,000 compounds screened, about 6,000 (1.7%) were called active. Inconclusive results, whose numbers are uncertain, are shown with a selection of clear calls. Calls come from the whole dose curve; as a rule, active = well fitted cell-killing curve with a large enough effect; inconclusive = small, poorly fitted or top-dose-only effect, or effect the other way; inactive = flat fitted curve, though single readings scatter. Potencies of inconclusive entries are left out as doubtful fits. Potency is the fitted concentration of half-maximal effect; tags give direction and shape of the fitted curve.",
  "data": [
    {"test": "qHTS for induction of synthetic lethality in tumor cells producing 2HG: qHTS for the HT-1080-NT fibrosarcoma cell line;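 note: NT is the 2HG producing partner of a matched IDH1 knockdown line; nearly all actives have a fitted effect of over 55% in size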;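 for activity, negative = less viability: 0% = DMSO-treated cells and -100% = media-only wells without cells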", "conditions": "HT-1080-NT fibrosarcoma viability, CellTiter-Glo ATP luminescence, 48 h; activity, negative = less viability: at 46.1 µM (top of the series) unless noted", "in_short": "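Toxicity toward the 2HG-producing NT line was scored as %Activity, normalised to DMSO and no-cell wells, from CellTiter-Glo luminescence after 48 hours' treatment.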", "values": [
      {"smiles": "CC(=O)CSc1ccc(-c2nc3ccccc3[nH]2)cn1", "Potency": "inconclusive [cytotoxic, single point]"},
      {"smiles": "CCCCNC(=O)C1(C)CCN1C(=O)Cc1ccc(OC)cc1", "note": "(centres undefined)", "Potency": "inconclusive [rising, single point]"},
      {"smiles": "Cc1cc(C)c2c(N)c(C(=O)Nc3ncc(C)s3)sc2n1", "Potency": "inconclusive [cytotoxic, single point]"},
      {"smiles": "O=C(CN1c2ccccc2Sc2ccccc21)NNC(=O)Nc1ccc(Cl)c(Cl)c1", "Potency": "active: 20.6 µM"},
      {"smiles": "CNC(=S)Nc1ccc(C(N)=O)cc1", "activity, negative = less viability": "inconclusive: 35.9%"},
      {"smiles": "Cc1ccc(C(O)c2ncc(-c3ccc(Cl)cc3)[nH]2)c(C)c1", "note": "(centres undefined)", "Potency": "inconclusive [cytotoxic, single point]"},
      {"smiles": "CCOC(=O)C(C(C)=O)c1c(Br)c(O)c(O)c2c(C(=O)c3ccc(C)cc3)coc12", "note": "(centres undefined)", "Potency": "active: 8.91 µM"},
      {"smiles": "CCOC(=O)c1cc(C)sc1NC(=O)c1ccc(Cl)s1", "Potency": "inconclusive [rising, partial curve]"},
      {"smiles": "S=c1[nH]cnc2scc(-c3ccc(Br)cc3)c12", "Potency": "active: 20.6 µM"},
      {"smiles": "CCOC(=O)C(NS(=O)(=O)c1ccccc1)(C(F)(F)F)P(=O)(OCC(C)C)OCC(C)C", "note": "(centres undefined)", "Potency": "inconclusive [cytotoxic, single point]"},
      {"smiles": "Cc1ccc2nc(-c3ccco3)c(Cc3ccccc3)n2c1", "Potency": "inconclusive [cytotoxic, single point]"},
      {"smiles": "O=C(NC1CCCCC1)C(c1ccc(O)cc1)N(CC1CCCO1)C(=O)C1COc2ccccc2O1", "note": "(centres undefined)", "Potency": "active: 4.61 µM"},
      {"smiles": "Cc1cc(=O)[nH]c(N/N=C/c2ccccc2C(F)(F)F)n1", "Potency": "inactive"},
      {"smiles": "OC(c1cccc(Cl)c1)c1nc(-c2cc3ccccc3o2)cs1", "note": "(centres undefined)", "Potency": "inconclusive [cytotoxic, single point]"},
      {"smiles": "COc1ccccc1CNc1nc(Oc2cccc(F)c2)c2sccc2n1", "Potency": "inconclusive [cytotoxic, single point]"},
      {"smiles": "CCOC(=O)C(=O)NNc1ccc(Cl)cc1", "Potency": "active: 3.66 µM"},
      {"smiles": "C(=N\\n1cnnc1)/c1ccc(OCc2cccc3ccccc23)cc1", "Potency": "inconclusive [cytotoxic, single point]"},
      {"smiles": "CCOC(=O)c1c(NC(=O)/C=C/C(=O)O)sc(C)c1-c1ccc(C)c(C)c1", "Potency": "inconclusive [cytotoxic, single point]"},
      {"smiles": "CCOC(=O)C(C)On1c(-n2nc(C)cc2C)nc2ccccc2c1=O", "note": "(centres undefined)", "Potency": "inconclusive [cytotoxic, single point]"},
      {"smiles": "Clc1cccc(-c2nc(NCc3cccnc3)c3ccccc3n2)c1", "Potency": "inconclusive [cytotoxic, single point]"},
      {"smiles": "O=C(c1c[nH]c(C(=O)C(Cl)(Cl)Cl)c1)c1ccccc1Cl", "Potency": "inactive"},
      {"smiles": "Cc1ccc(OCCNC(=O)/C=C/c2ccccc2)cc1", "Potency": "inconclusive [rising, single point]"},
      {"smiles": "CN(C)C(=O)COc1ccc(C(=O)/C=C/c2cccnc2)cc1", "Potency": "inconclusive [cytotoxic, single point]"},
      {"smiles": "CC(C)OC(=O)CN1C(=O)C(=O)c2ccccc21", "Potency": "inconclusive [cytotoxic, single point]"},
      {"smiles": "O=[N+]([O-])c1ccc(NC(c2ccccc2)c2ccc3cccnc3c2O)cc1", "note": "(centres undefined)", "Potency": "inconclusive [cytotoxic, partial curve]"},
      {"smiles": "Cc1ccc(OCCC(=O)OCC(=O)NC(=O)c2ccccc2)cc1", "Potency": "inactive"},
      {"smiles": "CCc1cc2c(NCc3ccco3)ncnc2s1", "Potency": "inactive"},
      {"smiles": "COc1ccc(-c2[nH]ncc2CNCCCSC)cc1F", "Potency": "inconclusive [rising, partial curve, poor fit]"},
      {"smiles": "CCCCn1c(CCNC(=O)CCC)nc2ccccc21", "Potency": "inactive"},
      {"smiles": "O=C1c2cccc3c([N+](=O)[O-])ccc(c23)C(=O)N1c1ccc(Cl)cn1", "Potency": "active: 4.47 µM"},
      {"smiles": "Fc1ccccc1NC(=S)NNc1ncc(C(F)(F)F)cc1Cl", "Potency": "inconclusive [cytotoxic, single point]"},
      {"smiles": "CN(Cc1c(F)cccc1Cl)C(=O)c1cnc2ccccc2n1", "Potency": "inactive"},
      {"smiles": "CS/C(=C(/C#N)S(=O)(=O)c1ccc(Cl)cc1)N1CCOCC1", "Potency": "inactive"},
      {"smiles": "CCCn1nnc(NC(=O)/C=C/c2ccccc2)n1", "Potency": "inconclusive [rising, full curve]"},
      {"smiles": "CCOC(=O)c1sc(Nc2ccc(Br)cc2)nc1C", "Potency": "inconclusive [cytotoxic, single point]"},
      {"smiles": "O=C(c1ccccc1)[C@@H]1[C@@H]2C(=O)N(c3ccc(F)cc3)C(=O)[C@@H]2C2CCCN21", "note": "(some centres undefined)", "Potency": "inconclusive [cytotoxic, partial curve]"},
      {"smiles": "CC(Nc1ccc(Br)cn1)c1cc(Cl)ccc1O", "note": "(centres undefined)", "Potency": "inconclusive [cytotoxic, single point]"},
      {"smiles": "COc1ccc(S(=O)(=O)Nc2cccc3c2O[C@H](CN(C)Cc2ccncc2)[C@@H](C)CN([C@H](C)CO)C3=O)cc1", "Potency": "inconclusive [cytotoxic, single point]"},
      {"smiles": "CCOc1ccc(C(=O)N2CCN(c3ncccn3)CC2)cc1", "Potency": "inactive"},
      {"smiles": "COc1ccc2c(C)cc(SCC(=O)Nc3nsc(-c4ccc(C)cc4)n3)nc2c1", "Potency": "inactive"},
      {"smiles": "COc1ccc(/C(C)=N/OC/C(O)=C(\\C#N)c2nc3ccccc3[nH]2)cc1OC", "activity, negative = less viability": "inconclusive: -4.11% [cytotoxic]"},
      {"smiles": "COc1ccc(NS(=O)(=O)c2ccc3oc(Nc4ccc5c(c4)OCCO5)nc3c2)cc1", "Potency": "inconclusive [cytotoxic, single point]"},
      {"smiles": "COc1ccc(OC)c(CC(=O)Nc2ccc3c(c2)CCC3)c1", "Potency": "inactive"},
      {"smiles": "Cc1ccc(Cn2c(C(CO)Nc3nc(-c4ccc(Cl)c([N+](=O)[O-])c4)cs3)nc3ccccc32)cc1", "note": "(centres undefined)", "Potency": "inconclusive [cytotoxic, single point]"},
      {"smiles": "O=C(NC(=S)NN1CCCCC1c1cccnc1)c1ccc(Cl)cc1Cl", "note": "(centres undefined)", "Potency": "inconclusive [cytotoxic, single point]"},
      {"smiles": "COc1ccc([N+](=O)[O-])cc1NC(=O)CCN1CCOCC1", "Potency": "inactive"},
      {"smiles": "COCCn1nnnc1SCC(=O)Nc1ccc2c(c1)OCO2", "Potency": "inconclusive [rising, single point]"},
      {"smiles": "COc1ncnc2c1oc1ccccc12", "Potency": "inactive"},
      {"smiles": "O=C1c2ccccc2C(=O)N1CCCCN(C(=O)c1cc2ccccc2oc1=O)c1ccc(Cl)cc1", "Potency": "inactive"},
      {"smiles": "COc1ccccc1Cc1c(-c2cccc(Br)c2)nc2ccc(Br)cn12", "Potency": "inconclusive [cytotoxic, single point]"},
      {"smiles": "CCOC(=O)c1c(NC(=S)Nc2ccccc2)sc(C)c1C", "Potency": "inconclusive [cytotoxic, single point]"},
      {"smiles": "O=C(c1c(O)c2ccccc2oc1=O)C1CCCCC1", "Potency": "inconclusive [cytotoxic, partial curve, poor fit]"},
      {"smiles": "O=C(CN(C(=O)c1csnn1)c1ccccc1F)NCc1ccccc1", "activity, negative = less viability": "inconclusive: 31.4%"},
      {"smiles": "CC1=NN(c2ccc(Br)cc2)C(=O)/C1=C/c1cccs1", "Potency": "inconclusive [cytotoxic, single point]"},
      {"smiles": "CC1=CC(C)(C)N(S(=O)(=O)c2ccc(C)cc2)c2cc(C)ccc21", "Potency": "active: 1 µM"},
      {"smiles": "CCc1cccc(CC)c1C(OC(C)=O)c1cccnc1", "note": "(centres undefined)", "Potency": "inactive"},
      {"smiles": "Cc1ccc(NC(=O)COC(=O)CNC(=O)c2cccc([N+](=O)[O-])c2)cc1S(=O)(=O)N1CCCCCC1", "Potency": "inconclusive [cytotoxic, single point]"},
      {"smiles": "O=[N+]([O-])c1ccccc1Nc1nc(-c2cccnc2)cs1", "Potency": "inactive"},
      {"smiles": "c1ccc(-c2csc(Nc3ccc4c(c3)OCO4)n2)cc1", "Potency": "inconclusive [cytotoxic, partial curve]"},
      {"smiles": "C=CCC(=O)N1CCCC(CNC(=O)c2ccc(-c3ccccc3)cc2)C1", "note": "(centres undefined)", "Potency": "inactive"},
      {"smiles": "CCCCC[C@H]1CCCCC[C@@H](O)C[C@H](O)[C@H](O)/C=C/C(=O)O1", "Potency": "inactive"},
      {"smiles": "O=C(Nc1cccc(C(F)(F)F)c1)C1Cc2c(-c3ccccc3)ccnc2O1", "note": "(centres undefined)", "Potency": "inconclusive [cytotoxic, single point]"},
      {"smiles": "CCCCN(C)C(=O)c1cc2c(Cl)nc3ccccc3c2s1", "Potency": "inactive"},
      {"smiles": "CC(=O)Oc1ccc(C2(C)CC(C)(C)NC(=S)N2C)c(OC(C)=O)c1", "note": "(centres undefined)", "Potency": "inactive"},
      {"smiles": "Cn1c(=O)c2c(ncn2CC(=O)Nc2ccccc2)n(C)c1=O", "Potency": "inactive"},
      {"smiles": "CC(C)CCn1cnc2c1c(=O)n(CC(=O)NC(N)=O)c(=O)n2Cc1ccccc1", "Potency": "inconclusive [rising, single point]"},
      {"smiles": "O=C(c1ccccc1)c1ccc(Oc2ccc([N+](=O)[O-])cc2[N+](=O)[O-])cc1", "Potency": "active: 14.6 µM"},
      {"smiles": "COc1cccc(/C=N/NC(=O)CNC(=O)COc2cccc(C)c2)c1O", "Potency": "inconclusive [cytotoxic, single point]"},
      {"smiles": "CC1(C)Cc2c(c(-c3ccco3)nc3sc4c(NCCN5CCOCC5)ncnc4c23)CO1", "Potency": "active: 23.1 µM"},
      {"smiles": "CC(C)C[C@H]1CN([C@@H](CC(C)C)CN2CCC[C@@H]2CN2C(=S)NC[C@@H]2Cc2ccc(O)cc2)C(=S)N1CC1CCCCC1", "Potency": "active: 20.6 µM"},
      {"smiles": "CCCCC(=O)Nc1ccc(NC(=O)c2ccc([N+](=O)[O-])cc2Cl)cc1OC", "Potency": "inconclusive [rising, partial curve]"},
      {"smiles": "COc1cc(OC)cc(C2=Cc3ccccc3C(CC(C)=O)N2c2ccc(C#CCCO)cc2)c1", "note": "(centres undefined)", "Potency": "inconclusive [cytotoxic, single point]"},
      {"smiles": "COc1cc(/C=C/C(=O)c2ccc(F)cc2)cc(OC)c1OC", "Potency": "active: 23.1 µM"},
      {"smiles": "CC(C(=O)OCC(=O)Nc1ccc(S(N)(=O)=O)cc1)N1C(=O)c2ccccc2C1=O", "note": "(centres undefined)", "Potency": "inactive"}
    ]}
  ]
}
